Laboratory results reported in PubChem BioAssay AID686978 (National Center for Advancing Translational Sciences (NCATS), 2013).
Out of some 420,000 compounds screened, about 64,000 (15%) were called active. Inconclusive results, whose numbers are uncertain, are shown with a selection of clear calls. Calls come from the whole dose curve; as a rule, active = well fitted inhibition curve with a large enough effect; inconclusive = small, poorly fitted or top-dose-only effect; inactive = flat fitted curve, though single readings scatter. Potencies of inconclusive entries are left out as doubtful fits.

assay: qHTS for Inhibitors of human tyrosyl-DNA phosphodiesterase 1 (TDP1): qHTS in cells in absence of CPT; conditions: DT40 Tdp1-/- hTDP1 cells, no CPT, ATP luminescence, 48 h; series mostly up to 46.2 µM; note: nearly all actives have a fitted effect of over 55% in size
Summary of the method: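 Stably hTDP1-transfected Tdp1-null chicken DT40 cells were treated with library compounds minus camptothecin and grown for at least 48 hr at 37 °C, after which cellular ATP was quantified by luminescence.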
Potency is the fitted concentration of half-maximal effect; tags give direction and shape of the fitted curve.

Row | SMILES | Potency
1 | COc1cc2c(cc1OC)CN(C(=O)c1cc(Cl)nc(Cl)c1)CC2 | inconclusive [inhibitor, partial curve]
2 | Cc1ccc(NC(=O)N(Cc2ccc3c(c2)OCO3)Cc2cc3cc4c(cc3[nH]c2=O)OCCO4)cc1 | inconclusive [inhibitor, single point]
3 | CCc1ccc(CN2C(=O)c3ccccc3C2C(=O)NC(C)CC)cc1 (stereo not drawn) | inconclusive [inhibitor, partial curve, poor fit]
4 | CCS(=O)(=O)Nc1ccc(C(=O)CC2(O)C(=O)Nc3ccc(Br)cc32)cc1 (stereo not drawn) | active: 6.51 µM
5 | COc1ccc(-c2[nH]c(-c3ccc(F)cc3)nc2SCC(=O)Nc2ccc(OC)c(OC)c2)cc1 | inconclusive [inhibitor, single point]
6 | CC1=C(C(=O)N(C)C)CC(CC(=O)NC2CCCCC2)C(=O)N1CCC1=CCCCC1 (stereo not drawn) | inconclusive [inhibitor, full curve, poor fit]
7 | CCCc1cc(=O)oc2cc(C)cc(OC(=O)c3ccco3)c12 | active: 18.4 µM
8 | c1ccc(CSc2ccc(-c3ccccn3)nn2)cc1 | inconclusive [inhibitor, single point]
9 | COc1ccc(Br)c(Cn2c(C)c(C(=O)NCc3ccc(F)cc3)sc2=O)c1 | inconclusive [inhibitor, single point]
10 | COc1ccc(NC(=O)C2Cc3c(-c4ccc(NC(C)=O)cc4)ccnc3O2)cc1OC (stereo not drawn) | inconclusive [inhibitor, single point]
11 | Nc1ccc2c3c(ccc([N+](=O)[O-])c13)CC2 | active: 7.31 µM
12 | CCN(CC)C(=O)Oc1ccc2c(=O)c(-c3ccccc3)coc2c1 | inconclusive [inhibitor, partial curve, poor fit]
13 | COC(=O)CCC(=O)OC1(C)C(=O)C=C2C=C(C3CC3)N(CC3CC3)C=C2C1=O (stereo not drawn) | inactive
14 | O=C(CSc1nnc(-c2ccco2)o1)N1CCN(c2ccccc2)CC1 | inactive
15 | Cn1c(=O)[nH]c(=O)c2c1nc(CN1CCN(c3cccc(Cl)c3)CC1)n2CCc1ccccc1 | inconclusive [inhibitor, single point]
16 | CC1NC(=O)NC1CCCCCC(=O)Nc1ccc(F)cc1 (stereo not drawn) | inactive
17 | C[C@@H]1CN(Cc2ccc3c(c2)CN(C(=O)CN2CCOc4ccccc4C2)CCO3)C[C@H](C)O1 | inactive
18 | Cc1cc(C)c(S(=O)(=O)N2CCOCC2)c(C)c1N(C)S(=O)(=O)c1ccccc1 | inconclusive [inhibitor, partial curve, poor fit]
